Data on 13 molecules can be found in US20150266962A1.

B1: hu08-vc-0101 antibody-drug conjugate (antibody)
heavy: EVQLVESGGGLVQPGGSLRLSCAASGFTFSRNGMSWVRQAPGKGLEWVATVSSGGSYIYYADSVKGRFTISRDNAKNSLYLQMNSLRAEDTAVYYCARQGTTALATRFFDVWGQGTLVTVSS[sequence of human IgG1 constant region not given]
light: DIQMTQSPSSLSASVGDRVTITCKASQDVGTAVAWYQQKPGKAPKLLIYSASYRSTGVPSRFSGSGSGTDFTLTISSLQPEDFATYYCQHHYSAPWTFGGGTKVEIKRTVAAPSVFIFPPSDEQLKSGTASVVCLLNNFYPREAKVQWKVDNALQSGNSQESVTEQDSKDSTYSLSSTLTLSKAAYEKHKVYACEVTHQGLSSPVTKSFNRGEC
modifications: here or on the partner: linker-payload vc-0101 on reduced cysteine residues (sites not given); linker-payload vc-0101 on reduced cysteine residues (sites not given); DAR 3.2
B2: hu08-vc-6780 antibody-drug conjugate (antibody, human IgG1, kappa)
heavy: B1 heavy
light: B1 light
modifications: here or on the partner: linker-payload vc-6780 on cysteine residues (sites not given); linker-payload vc-6780 on cysteine residues (sites not given); DAR 4
B3: hu08-mc-3906 antibody-drug conjugate (antibody, human IgG1, kappa)
heavy: B1 heavy
light: B1 light
modifications: here or on the partner: linker-payload mc-3906 on cysteine residues (sites not given); linker-payload mc-3906 on cysteine residues (sites not given); DAR 3
B4: hu08v1.0/1.0 K392C/L443C-vc-0101 ADC (antibody)
heavy: EVQLVESGGGLVQPGGSLRLSCAASGFTFSRNGMSWVRQAPGKGLEWVATVSSGGSYIYYADSVKGRFTISRDNAKNSLYLQMNSLRAEDTAVYYCARQGTTALATRFFDVWGQGTLVTVSSASTKGPSVFPLAPSSKSTSGGTAALGCLVKDYFPEPVTVSWNSGALTSGVHTFPAVLQSSGLYSLSSVVTVPSSSLGTQTYICNVNHKPSNTKVDKKV[sequence of human IgG1 Fc with K392C L443C (EU numbers) not given]
light: B1 light
modifications: here or on the partner: vc-0101 on engineered Cys 392 and Cys 443 (EU); DAR 3.7
B5: hu08-mc-0131 antibody-drug conjugate (antibody, human IgG1, kappa)
heavy: B1 heavy
light: B1 light
modifications: here or on the partner: linker-payload mc-0131 on cysteine residues (sites not given); linker-payload mc-0131 on cysteine residues (sites not given); DAR 3.2
B6: hu08v1.0/1.0 L443C-vc-0101 ADC (antibody)
heavy: EVQLVESGGGLVQPGGSLRLSCAASGFTFSRNGMSWVRQAPGKGLEWVATVSSGGSYIYYADSVKGRFTISRDNAKNSLYLQMNSLRAEDTAVYYCARQGTTALATRFFDVWGQGTLVTVSSASTKGPSVFPLAPSSKSTSGGTAALGCLVKDYFPEPVTVSWNSGALTSGVHTFPAVLQSSGLYSLSSVVTVPSSSLGTQTYICNVNHKPSNTKVDKKV[sequence of human IgG1 Fc with L443C (EU numbers) not given]
light: B1 light
modifications: here or on the partner: vc-0101 on engineered Cys 443 (EU); DAR 2.1
B7: hu08-MalPeg-0131 antibody-drug conjugate (antibody, human IgG1, kappa)
heavy: B1 heavy
light: B1 light
modifications: here or on the partner: linker-payload MalPeg-0131 on cysteine residues (sites not given); linker-payload MalPeg-0131 on cysteine residues (sites not given); DAR 2.9
B8: hu08-MalPeg-6121 antibody-drug conjugate (antibody, human IgG1, kappa)
heavy: B1 heavy
light: B1 light
modifications: here or on the partner: linker-payload MalPeg-6121 on cysteine residues (sites not given); linker-payload MalPeg-6121 on cysteine residues (sites not given); DAR 3.3
B9: hu08v1.0/1.0 Q347C-vc-0101 ADC (antibody, human IgG1, kappa)
heavy: EVQLVESGGGLVQPGGSLRLSCAASGFTFSRNGMSWVRQAPGKGLEWVATVSSGGSYIYYADSVKGRFTISRDNAKNSLYLQMNSLRAEDTAVYYCARQGTTALATRFFDVWGQGTLVTVSSASTKGPSVFPLAPSSKSTSGGTAALGCLVKDYFPEPVTVSWNSGALTSGVHTFPAVLQSSGLYSLSSVVTVPSSSLGTQTYICNVNHKPSNTKVDKKV[sequence of human IgG1 Fc with Q347C (EU numbers) not given]
light: B1 light
modifications: here or on the partner: vc-0101 on engineered Cys 347 (EU); DAR 2.1
B10: hu08-mc-3377 antibody-drug conjugate (antibody)
heavy: B1 heavy
light: B1 light
modifications: here or on the partner: linker-payload mc-3377 on reduced cysteine residues (sites not given); linker-payload mc-3377 on reduced cysteine residues (sites not given); DAR 4.3 (Table 17), 3.5 (Table 28b)
B11: hu08-mc-6121 antibody-drug conjugate (antibody, human IgG1, kappa)
heavy: B1 heavy
light: B1 light
modifications: here or on the partner: linker-payload mc-6121 on cysteine residues (sites not given); linker-payload mc-6121 on cysteine residues (sites not given); DAR 3.3
B12: hu08v1.0/1.0 L443C-mc-3377 ADC (antibody)
heavy: B6 heavy
light: B1 light
modifications: here or on the partner: mc-3377 on engineered Cys 443 (EU); DAR 2.3
B13: hu08v1.0/1.0 K392C + L443C-mc-3377 ADC (antibody)
heavy: B4 heavy
light: B1 light
modifications: here or on the partner: mc-3377 on engineered Cys 392 and Cys 443 (EU); DAR 3.5

One assay deals with T1, human IL-13Rα2 on the surface of human tumour cell lines (human), Q14627. Description: cell-based or functional assay.
T1 sequence (Q14627 27-380): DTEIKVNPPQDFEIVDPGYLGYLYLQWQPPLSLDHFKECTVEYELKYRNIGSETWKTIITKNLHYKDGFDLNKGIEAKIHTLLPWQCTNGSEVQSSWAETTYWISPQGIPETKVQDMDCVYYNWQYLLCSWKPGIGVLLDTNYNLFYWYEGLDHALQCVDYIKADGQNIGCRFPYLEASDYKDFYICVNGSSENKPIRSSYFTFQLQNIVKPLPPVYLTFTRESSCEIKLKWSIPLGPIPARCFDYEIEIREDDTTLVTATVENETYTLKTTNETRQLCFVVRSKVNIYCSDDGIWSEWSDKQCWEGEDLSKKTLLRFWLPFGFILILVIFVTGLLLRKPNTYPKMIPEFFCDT
In turn, B1 registered an IC50 (ng Ab/mL), in vitro cytotoxicity, A375 of 3.8 ng Ab/mL; an IC50 (ng Ab/mL), in vitro cytotoxicity, PC3MM2 of 2.5 ng Ab/mL; an IC50 (ng/mL), in vitro cytotoxicity, A375 of 1.7 ng/mL; an IC50 (ng/mL), in vitro cytotoxicity, PC3MM2 of 1.93 ng/mL.

The molecule B2 yielded an IC50 (ng Ab/mL), in vitro cytotoxicity, A375 of 2.2 ng Ab/mL and an IC50 (ng Ab/mL), in vitro cytotoxicity, PC3MM2 of 1.2 ng Ab/mL.

The molecule B3 registered an IC50 (ng Ab/mL), in vitro cytotoxicity, A375 of 2.9 ng Ab/mL and an IC50 (ng Ab/mL), in vitro cytotoxicity, PC3MM2 of 1.5 ng Ab/mL.

On to B4, for which the IC50 (ng/mL), in vitro cytotoxicity, A375 was 0.63 ng/mL and the IC50 (ng/mL), in vitro cytotoxicity, PC3MM2 stood at 1.41 ng/mL.

For the molecule B5, the IC50 (ng Ab/mL), in vitro cytotoxicity, A375 turned out to be 2.1 ng Ab/mL and the IC50 (ng Ab/mL), in vitro cytotoxicity, PC3MM2 amounted to 1.3 ng Ab/mL.

B6 registered an IC50 (ng/mL), in vitro cytotoxicity, A375 of 1.41 ng/mL and an IC50 (ng/mL), in vitro cytotoxicity, PC3MM2 of 2.4 ng/mL.

Molecule B7 registered an IC50 (ng Ab/mL), in vitro cytotoxicity, A375 of 4.9 ng Ab/mL and an IC50 (ng Ab/mL), in vitro cytotoxicity, PC3MM2 of 2.9 ng Ab/mL.

For the molecule B8, the IC50 (ng Ab/mL), in vitro cytotoxicity, A375 was determined as 3.4 ng Ab/mL and the IC50 (ng Ab/mL), in vitro cytotoxicity, PC3MM2 worked out at 3.5 ng Ab/mL.

B9 came in with an IC50 (ng/mL), in vitro cytotoxicity, A375 of 1.65 ng/mL and an IC50 (ng/mL), in vitro cytotoxicity, PC3MM2 of 2.66 ng/mL.

For B10, the IC50 (ng Ab/mL), in vitro cytotoxicity, A375 came out at 2.2 ng Ab/mL and the IC50 (ng Ab/mL), in vitro cytotoxicity, PC3MM2 was found to be 1.2 ng Ab/mL.

B11 registered an IC50 (ng Ab/mL), in vitro cytotoxicity, A375 of 2.4 ng Ab/mL and an IC50 (ng Ab/mL), in vitro cytotoxicity, PC3MM2 of 1.1 ng Ab/mL.

The next assay deals with T1, human IL-13Rα2 on the surface of human …. Put plainly: cell-based or functional assay. This is another data set of the same source.
Molecule B12 gave an IC50 (ng Ab/mL), in vitro cytotoxicity, A375 of 3.3 ng Ab/mL and an IC50 (ng Ab/mL), in vitro cytotoxicity, PC3MM2 of 3.9 ng Ab/mL.

Consider B13, for which the IC50 (ng Ab/mL), in vitro cytotoxicity, A375 came out at 1.3 ng Ab/mL and the IC50 (ng Ab/mL), in vitro cytotoxicity, PC3MM2 came out at 2.2 ng Ab/mL.

For B10, the IC50 (ng Ab/mL), in vitro cytotoxicity, A375 came out at 1.8 ng Ab/mL and the IC50 (ng Ab/mL), in vitro cytotoxicity, PC3MM2 worked out at 1.8 ng Ab/mL.
